# Source: PubChem BioAssay AID686978 (National Center for Advancing Translational Sciences (NCATS), 2013)
# The whole screen tested about 420,000 compounds, of which about 64,000 (15%) were called active. The inconclusive results got no clear call from the source; some entries with a clear call stand among them for comparison. The call rests on the fitted dose curve; in most records, active means well fitted inhibition curve with a large enough effect; inconclusive means small, poorly fitted or top-dose-only effect; inactive means flat fitted curve, though single readings scatter. Potencies of inconclusive entries are left out as doubtful fits.
# Assay: qHTS for Inhibitors of human tyrosyl-DNA phosphodiesterase 1 (TDP1): qHTS in cells in absence of CPT; further: nearly all actives have a fitted effect of over 55% in size
# Conditions: DT40 Tdp1-/- hTDP1 cells, no CPT, ATP luminescence, 48 h; activity change, negative = growth inhibition: at 46.2 µM (top of the series) unless noted
# Summary of the method: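 No-CPT arm: Tdp1-/-;hTDP1 DT40 cells (400/well) plus compounds, incubated ≥48 hr at 37 °C. Readout CellTiter-Glo luminescence.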
# On the % scale 0 is the no-effect control and ±100 the full control effect; potency means the concentration at half of the fitted maximal effect; tags describe the fitted curve by direction and shape.
SMILES,"activity change, negative = growth inhibition",Potency
CCOc1ccc(Br)cc1S(=O)(=O)N1CCCN(C)CC1,inactive: -21.5%,–
Cc1cccc(-n2c(O)c(C=Nc3cccc(O)c3)c3ccccc3c2=O)n1,–,"inconclusive [inhibitor, single point]"
CCCCn1nnnc1NCc1cccnc1,–,active: 13 µM
CN1CCN(S(=O)(=O)NC[C@H]2O[C@@H](n3cnc4c(N)ncnc43)[C@H](O)[C@@H]2O)CC1,inactive: 18.6%,–
CCCOc1ccc(CNC(=O)C2CCN(c3nc4ccccc4nc3C(F)(F)F)CC2)cc1,–,"inconclusive [inhibitor, partial curve]"
CCOc1ccc(OCCC(=O)NNC(=O)c2ccncc2)cc1,inactive: 0.105%,–
CC1COc2ccccc2N1S(=O)(=O)c1ccccc1 (stereo not given),–,"inconclusive [inhibitor, partial curve, poor fit]"
COc1cc(C2SC(C)C(=O)N2CCc2ccccc2)cc(OC)c1OC (stereo not given),–,"inconclusive [inhibitor, single point]"
CC(C)c1ccc(S(=O)(=O)N2CCN(CCC(=O)Nc3ccc(N(C)C)cc3)CC2)cc1,–,"inconclusive [inhibitor, single point]"
Cc1ccc(SCC(=O)Nc2cccc(-c3nc4cc(Cl)ccc4o3)c2C)cc1,–,"inconclusive [inhibitor, single point]"
COC(=O)C1=C(CCc2ccccc2)NC(=O)NC1c1ccc([N+](=O)[O-])cc1 (stereo not given),–,"inconclusive [inhibitor, single point]"
COc1cc2nc(CN(C)Cc3ccc(C(C)(C)C)cc3)[nH]c(=O)c2cc1OC,–,"inconclusive [inhibitor, single point]"
CCCc1[nH]nc2c1C(c1cc(OC)cc(OC)c1)C(C#N)=C(N)O2 (stereo not given),inactive: -12.8%,–
COc1ccc(Nc2cc(NCCCO)c([N+](=O)[O-])c3nonc23)cc1,inactive: 1.06%,–
Cc1onc(-c2ccccc2)c1C(=O)Nc1nnc(CC(C)C)s1,inactive: -12.7%,–
Cc1ccc(C(=O)N2CCc3ccccc32)o1,–,active: 3.26 µM
CC(C)(C)c1ccc(-c2noc(CCC(=O)NCc3ccco3)n2)cc1,–,active: 25.9 µM
CC(Oc1ccccc1)C(=O)N=Nc1c(O)[nH]c2ccc(Br)cc12 (stereo not given),inactive: -4.7%,–
CCOC(=O)c1c(S(=O)(=O)NCC(C)c2ccccc2)c(C)n(C)c1C (stereo not given),inactive: -17.8%,–
CN1CCN(c2ccc3c(c2)C2CC3CCN2C(=O)OCc2ccccc2)CC1 (stereo not given),–,"inconclusive [inhibitor, single point]"
CC(C)c1ccc(N(CC(=O)NC(C)(C)C)C(=O)CCC(=O)Nc2nccs2)cc1,–,"inconclusive [inhibitor, single point]"
O=C(CN1C2=NCCN2c2ccccc21)c1ccc(Br)s1,–,"inconclusive [inhibitor, single point]"
Cc1cccc(NC(=O)C(c2cccc([N+](=O)[O-])c2)N2CCCCC2)c1 (stereo not given),–,"inconclusive [inhibitor, single point]"

SMILES,"activity change, negative = growth inhibition",Potency
CCC(C)[C@@H](N)C(=O)N/N=C/c1ccc2ncccc2c1 (stereo not given in full),–,active: 13 µM
COc1ccc(S(=O)(=O)NCc2ccc(C(=O)NCCCN3CCCC(C)C3)cc2)cc1 (stereo not given),inactive: -10.8%,–
CCS(=O)(=O)c1ccc(-c2csc(-c3ccccc3)n2)c(Cl)c1Cl,–,active: 20.6 µM
CC(=O)N1CCN(c2ccc(NCc3cccc4ccccc34)cc2)CC1,–,"inconclusive [inhibitor, single point]"
O=[N+]([O-])c1cccc(-c2cn3ccccc3n2)c1,–,"inconclusive [inhibitor, single point]"
COc1ccc(NC(=O)c2cc(-c3ccc(C)o3)nc3ccccc23)cc1,–,"inconclusive [inhibitor, partial curve]"
c1ccc(-c2csc3ncnc(-n4cnc5ccccc54)c23)cc1,–,"inconclusive [inhibitor, single point]"
CCc1nc(SCC(=O)Nc2ccc(F)cc2F)c2c(=O)n(C)c(=O)n(C)c2n1,–,"inconclusive [inhibitor, single point]"
C/C(=N\NC(=O)c1ccc(N/N=C(\C)c2ccncc2)cc1)c1ccncc1,–,active: 20.6 µM
CC(=O)Nc1ccc(S(=O)(=O)N2CCN(Cc3cccs3)CC2)cc1,–,"inconclusive [inhibitor, partial curve]"
CCCCCOC(=O)CC(C(=O)OCCCCC)N1CCCCC1 (stereo not given),–,"inconclusive [inhibitor, single point]"
c1ccc(CCN2CN(CCCN3CCOCC3)c3nc4ccccc4n3C2)cc1,–,"inconclusive [inhibitor, single point]"
COC(=O)c1cccc(NC(=O)CCc2c(C)noc2C)c1,inactive: 7.84%,–
O=C(c1cn(CC2CCCCC2)nn1)N1CCN(c2ccc(F)cc2)CC1,–,"inconclusive [inhibitor, partial curve, poor fit]"
CC(C)CCNC(=O)c1cn(CC(C)C)c(=O)c2c1c1ccccc1n2C,–,"inconclusive [inhibitor, single point]"
COc1ccc(C)cc1NCc1cc(=O)oc2cc(-c3ccccc3)c(O)cc12,–,"inconclusive [inhibitor, single point]"
COc1ccc(NC(=O)N(C)C[C@@H]2OCc3ccccc3-c3c(n(C)c4ccccc34)C(=O)N([C@H](C)CO)C[C@H]2C)c(OC)c1,–,"inconclusive [inhibitor, single point]"
CCOC(=O)C1=CCN(S(=O)(=O)c2ccccc2)C1c1ccc(Cl)cc1 (stereo not given),–,"inconclusive [inhibitor, single point]"
O=C(C1CCN(CC2CC=CCC2)CC1)N(CCc1ccccc1)Cc1ccccc1 (stereo not given),inactive: -2.16%,–
Cc1cc(C)cc(NC(=O)CSc2ccc(-c3ccccn3)nn2)c1,–,"inconclusive [inhibitor, single point]"
CCC(CC)C(=O)N(C)c1c(C)nc2c(OCc3ccccc3OC)cccn12,–,active: 14.6 µM
COc1ccc(/C=N/N=C2\SC(CC(=O)O)C(=O)N2c2ccccc2)c(OC)c1 (stereo not given),inactive: -3.14%,–
